Reference: patent publication US20250236679A1 (Chugai, published 2025)

Biological target: T1, human DLL3 expressed on cells (human DLL3/BaF3) (human, UniProt Q9NYJ7 27-618)
T1 construct: Full-length human DLL3 on the membrane of transformed Ba/F3 cells; The ADCC assays also used NCI-H1184 small-cell lung cancer cells that express DLL3; also called Delta-like 3; NM_016941
T1 sequence: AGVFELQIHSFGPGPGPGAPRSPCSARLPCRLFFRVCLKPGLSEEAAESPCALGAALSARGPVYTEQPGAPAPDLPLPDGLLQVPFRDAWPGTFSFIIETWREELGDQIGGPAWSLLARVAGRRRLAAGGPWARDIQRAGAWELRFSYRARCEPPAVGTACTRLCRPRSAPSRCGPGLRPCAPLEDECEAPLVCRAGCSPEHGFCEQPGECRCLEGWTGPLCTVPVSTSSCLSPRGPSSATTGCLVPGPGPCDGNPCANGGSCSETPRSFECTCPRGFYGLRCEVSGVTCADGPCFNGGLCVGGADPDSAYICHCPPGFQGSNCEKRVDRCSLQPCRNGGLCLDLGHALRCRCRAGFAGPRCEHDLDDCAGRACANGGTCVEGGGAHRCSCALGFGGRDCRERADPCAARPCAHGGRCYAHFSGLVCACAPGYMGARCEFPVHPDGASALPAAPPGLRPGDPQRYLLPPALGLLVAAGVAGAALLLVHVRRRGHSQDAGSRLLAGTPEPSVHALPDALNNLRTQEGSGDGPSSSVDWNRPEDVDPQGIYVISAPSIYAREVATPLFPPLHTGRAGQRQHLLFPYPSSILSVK
Experiment: flow cytometry on human DLL3/BaF3 cells, chimeric antibody 1 µg/ml
Experimental: The chimeric antibody in the culture supernatant of COS-7 was confirmed to bind to the human DLL3 protein by flow cytometry and ELISA. The chimeric antibody concentration in the culture supernatant of COS-7 was calculated by sandwich ELISA. In this concentration calculation, a human chimeric antibody known for its concentration was used as a standard. The chimeric antibody (final concentration: 1 μg/ml) was added to human DLL3/BaF3 cells suspended in a FACS buffer (PBS containing 1% fetal bovine serum). After incubation at 4° C. for 30 minutes and washing, the cells were reacted with FITC-labeled anti-human antibodies (Beckman Coulter, Inc.), and the binding of the chimeric antibody was analyzed using a flow cytometer FACSCalibur. […] Human DLL3-Fc was immobilized on a Nunc immunoplate, and the binding of each chimeric antibody to the immobilized protein was analyzed. […] The absorbance was determined. […]
COS-7 cells were transfected with the DL306 chimeric antibody expression vector and allowed to transiently express the chimeric antibody. […] The chimeric antibody concentration in the culture supernatant of COS-7 was calculated by sandwich ELISA. […] After incubation at 4° C. for 30 minutes and washing, the cells were reacted with FITC-labeled anti-human antibodies (Beckman Coulter, Inc.), and the binding of the chimeric antibody was analyzed using a flow cytometer FACSCalibur.

B1: DL306 human chimeric antibody (antibody, human IgG1, kappa)
heavy: EVQLQQSGPELVKPGASVKMSCRASGYTFTDYYMKWVKQSHGKSLEWIGDINPNNGDTFYNQKFKGKATLTIDKSSSTAYMQLNSLTSDDSAVYYCARDGNYAYFDYWGQGTTLTVSS[in this place human IgG1 constant region]
light: DIVLTQSPASLAVSLGQRATISCRASKSVSTSGYSYMHWYQQKPGQPPKLLIFLASNLESGVPARFSGSGSGTDFTLNIHPVEEEDAATYYCQHSRHLPWTFGGGTKLEIKRTVAAPSVFIFPPSDEQLKSGTASVVCLLNNFYPREAKVQWKVDNALQSGNSQESVTEQDSKDSTYSLSSTLTLSKADYEKHKVYACEVTHQGLSSPVTKSFNRGEC
notes: Mouse variable regions with human IgG1 constant regions; also called chimeric antibody DL306; DL306 chimeric antibody
  binding result: binds
